# Reference: paper PMC9574860, “Chemical Toolkit for PARK7: Potent, Selective, and High-Throughput” (Journal of Medicinal Chemistry, 2022)
# The campaign covered roughly 7,900 compounds. About 400 (5.1%) showed an effect of 50% or more. This is one part of the list.
# Molecular target: Parkinson's disease protein 7 (PARK7/DJ1) (human, UniProt Q99497)
# Assay: primary screen, percent inhibition; read as competition with a fluorescent probe by fluorescence polarization; higher = more effect of the substance
# Conditions: 100 µM
# Summary of the method: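 Covalent fragments at 100 μM final were incubated 2 h with 0.2 μM PARK7, then 20 nM probe JYQ-107 added for a further 2 h. Fluorescence polarization read at 480/520 nm; relative FP loss versus reference controls gave remaining enzyme activity.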
# Chain of Parkinson's disease protein 7 (PARK7/DJ1) (Q99497 whole entry, looked up): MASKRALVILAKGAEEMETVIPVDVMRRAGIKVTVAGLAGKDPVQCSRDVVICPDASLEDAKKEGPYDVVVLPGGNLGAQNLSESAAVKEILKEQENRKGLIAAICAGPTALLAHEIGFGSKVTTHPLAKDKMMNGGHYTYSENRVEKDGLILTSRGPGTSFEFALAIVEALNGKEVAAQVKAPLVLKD
row,SMILES,Inhibition % [%]
1,CC1(C)OB(c2cc(Cl)ccc2Cl)OC1(C)C,7.59
2,C=CC(=O)NC1CCN(c2ccccc2C(F)(F)F)C1 (centres unmarked),5.11
3,C=CC(=O)N1CCC(C(O)c2nccn2C)CC1 (centres unmarked),9.1
4,O=C(CCCl)Nc1ccccc1Cl,5.87
5,C=CC(=O)NC1CCC(NC(C)=O)CC1 (centres unmarked),4.84
6,O=C(CCl)N(c1ccccc1)C1CCCCC1,2.98
7,CCC1(C(=O)Nc2cccc(S(=O)(=O)F)c2)CCC1,93.8
8,O=c1onc(-c2ccccn2)n1Cc1cccc(F)c1,29.8
9,C=CC(=O)N1CCOCC1c1nc(-c2cccs2)no1 (centres unmarked),6.32
10,CNC(=O)C(C#N)=Cc1cc(Cl)ccc1OC(F)F,7.7
11,COCCCn1c(S)nc2ncccc2c1=O,3.34
12,Cc1cc(S)ncn1,31.1
13,O=C1OCCC1Sc1nnnn1C1CC1 (centres unmarked),5.76
14,O=C(CCl)NCc1cccc(Cl)c1,10.9
15,N#Cc1ncc(N)cc1Cl,18.7
16,OC1CCCC(CCl)C1 (centres unmarked),7.28
17,CCc1ccccc1NC(=O)CCl,13.2
18,C=CC(=O)N1CCOC(c2ccccc2F)C1 (centres unmarked),9.24

row,SMILES,Inhibition % [%]
1,O=C1CC(c2ccccc2Cl)N1 (centres unmarked),2.06
2,CC1(CNC(=O)c2ccc3c(=O)[nH]c(S)nc3c2)COC1,10.7
3,C=CC(=O)N[C@@]12CCC[C@]1(OC)OCC2 (racemic),9.38
4,C=CC(=O)N1Cc2cccc(F)c2C1,5.57
5,N#Cc1ncn(Cc2ccc(C(F)(F)F)cc2)n1,5.17
6,CN1C2CCC1CN(c1ccc(C#N)nc1)CC2 (centres unmarked),8.89
7,CN(Cc1cccc(F)c1)S(=O)(=O)F,8.98
8,CC1(C)Cc2cc(B3OC(C)(C)C(C)(C)O3)ccc2O1,3.19
9,C=CC(=O)N1CCN(C(C)=O)CC1C (centres unmarked),5.08
10,Cc1cc(CN(C)c2ccc(C#N)nc2)no1,-2.05
11,C=CC(=O)N1CCN(C(C)=O)CC1(C)C,2.26
12,Cc1cn(C)nc1B1OC(C)(C)C(C)(C)O1,23.1
13,CC1CC(N)CCN1C(=O)C=CC1CCCCC1 (centres unmarked),6.96
14,NCC1CCN(C(=O)C=Cc2cc3ccccc3o2)C1 (centres unmarked),5.72
15,CC1COCCN1C(=O)CN1CCSC1=O (centres unmarked),3.13
16,N#Cc1ncn(CC(=O)NCCc2ccccc2)n1,5.21
17,CC(=O)N1CCN(C(=O)C=Cc2ccc(Cl)s2)CC1,6.8
